Measurements as given in PubChem BioAssay AID504832 (National Center for Advancing Translational Sciences (NCATS), 2011).
Out of some 310,000 compounds screened, about 18,000 (5.8%) were called active. The shares of active, inactive and inconclusive entries below differ from those in the screen. Calls follow the shape of the dose curve; as a rule, active = well fitted inhibition curve with a large enough effect; inconclusive = small, poorly fitted or top-dose-only effect, or another doubt; inactive = no such curve, though single readings can be large or run the other way. Potencies of inconclusive entries are left out as doubtful fits.

Assay: Primary qHTS for delayed death inhibitors of the malarial parasite plastid, 48 hour incubation
Settings: P. falciparum luciferase growth in erythrocytes; series mostly up to 28.7 µM
Summary of the method: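 A one-generation exposure of luciferase-tagged malaria parasites in RPMI 1640/Albumax erythrocyte culture, 37 C and 5% CO2. Inhibition is inferred from decreased luminescence after adding detection reagent.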
Potency is read from the fitted curve at half-maximal effect; tags tell the direction and shape of the fitted curve.

Q: Which Potency does the source give for `Cc1cc(NC(=O)/C=C/C(=O)N(c2ccccc2C)C(C(=O)NC2CCCC2)c2ccc(F)cc2)no1` (stereo not drawn) here?
A: Its Potency is inconclusive [inhibitor, single point].

Q: With `Cc1ccc2c(C)nc(NC3=NCN(Cc4ccccc4)CN3)nc2c1` as the compound, how does the Potency read?
A: Its Potency is inconclusive [inhibitor, full curve, poor fit].

Q: For `CCOC(=O)c1c(N)n(C2CC(C)(C)NC(C)(C)C2)c2nc3ccccc3nc12`, which Potency is on record?
A: Its Potency is active: 10.4 µM.

Q: For `CCN(C#N)c1nc(NC(C)C)nc(NC(C)(C)C)n1`, which Potency is on record?
A: Its Potency is inconclusive [inhibitor, partial curve, poor fit].

Q: Which Potency does the source give for `O=C(NCCCn1ccnc1)c1ccc(Br)c(S(=O)(=O)N2CCOCC2)c1` here?
A: Its Potency is inconclusive [inhibitor, single point].

Q: For `CCN(CC)C(=O)c1cc([N+](=O)[O-])cc2c1-c1ccc([N+](=O)[O-])cc1C2=C(C#N)C#N`, which Potency is on record?
A: The Potency was active: 14.7 µM.

Q: For `CC1CN(C(=S)Nc2ccc(F)cc2F)CC(C)O1` (stereo not drawn), which Potency is on record?
A: Its Potency is “inactive”.

Q: Which Potency does the source give for `O=C(NC1CC1)C1CCN(C2CCN(Cc3ccccc3C(F)(F)F)CC2)CC1` here?
A: The Potency was inconclusive [inhibitor, single point].

Q: With `COc1ccc(CCNC(=O)CSc2ccc(Br)cc2)cc1OC` as the compound, how does the Potency read?
A: Its Potency is “inactive”.

Q: Which Potency does the source give for `CCN(CC)S(=O)(=O)c1ccc(N/N=C/c2ccc(O)cc2O)nc1` here?
A: The Potency was active: 2.33 µM.

Q: Which Potency does the source give for `Cc1nn(-c2ccccc2)c(Cl)c1/C=N/NC(=O)CNC(=O)c1ccccc1Cl` here?
A: Its Potency is “inactive”.

Q: Which Potency does the source give for `COc1ccc(CCNC(=O)C2CCCN2C(=O)Nc2ccc(F)cc2)cc1OC` (stereo not drawn) here?
A: The Potency was “inactive”.

Q: Which Potency does the source give for `Cc1cccn2c(=O)c3cc(C(=O)NC(C)C)c(=N)n(Cc4ccncc4)c3nc12` here?
A: The Potency was inconclusive [inhibitor, partial curve, poor fit].

Q: For `CCc1ccc(NSc2ccccc2[N+](=O)[O-])cc1`, which Potency is on record?
A: The Potency was inconclusive [inhibitor, single point].

Q: Which Potency does the source give for `CC(C)OCCCn1c(SC(C)C(=O)NC2CC2)nc2ccccc2c1=O` (stereo not drawn) here?
A: The Potency was inconclusive [inhibitor, single point].

Q: With `COC(=O)C1=C(c2ccc(Cl)c(C(F)(F)F)c2)C[C@@H]2CC[C@H]1N2C(=O)N1CCC(C)CC1` as the compound, how does the Potency read?
A: Its Potency is inconclusive [inhibitor, single point].

Q: Which Potency does the source give for `O=C(NC(=S)Nc1ccccc1N1CCN(C(=O)c2ccccc2)CC1)c1ccccc1F` here?
A: The Potency was inconclusive [inhibitor, partial curve, poor fit].

Q: For `CCOC(=O)c1c(NC(=O)COC(=O)c2ccccn2)sc2c1CCC2`, which Potency is on record?
A: The Potency was “inactive”.

Q: Which Potency does the source give for `C[C@@H]1CCC2[C@](C)(CO)[C@@H](O)CC[C@]2(C)[C@@]12CC[C@@](CO)(CC(=O)O)O2` (stereo partly drawn) here?
A: Its Potency is “inactive”.

Q: Which Potency does the source give for `COc1ccccc1N(CC(O)Cn1c2ccccc2c2ccccc21)S(=O)(=O)c1ccccc1` (stereo not drawn) here?
A: Its Potency is active: 11.7 µM.

Q: For `C=CCn1c(SCC(O)Cn2c3ccccc3c3ccccc32)nnc1-c1ccco1` (stereo not drawn), which Potency is on record?
A: The Potency was inconclusive [inhibitor, partial curve].

Q: With `CC(=O)N1CCN(S(=O)(=O)c2cccc(C(=O)Nc3ccccc3N3CCCCC3)c2)CC1` as the compound, how does the Potency read?
A: Its Potency is inconclusive [inhibitor, single point].

Q: For `COC(=O)NCCOC(=O)N(O)c1ccc(Br)cc1`, which Potency is on record?
A: The Potency was active: 9.28 µM.

Q: Which Potency does the source give for `CCC(C(=O)NNC(=O)c1cnccn1)c1ccccc1` (stereo not drawn) here?
A: Its Potency is inconclusive [inhibitor, single point].

Q: Which Potency does the source give for `CCCCc1nc2c(=O)[nH]c3ccccc3c2o1` here?
A: The Potency was inconclusive [inhibitor, full curve].

Q: With `CC(C)=CCN1CCN(Cc2ccc(C)s2)CC1CCO` (stereo not drawn) as the compound, how does the Potency read?
A: Its Potency is “inactive”.

Q: Which Potency does the source give for `CCCc1nnc(NC(=O)CCC(=O)N2CCN(CCOC(c3ccccc3)c3ccccc3)CC2)s1` here?
A: The Potency was active: 10.4 µM.

Q: For `CN=C1SC(CC(=O)Nc2ccccc2F)C(=O)N1C` (stereo not drawn), which Potency is on record?
A: The Potency was “inactive”.

Q: Which Potency does the source give for `COc1ccc(-c2csc(NC(=O)C3CC(=O)N(c4ccc5c(c4)OCCO5)C3)n2)cc1` (stereo not drawn) here?
A: The Potency was inconclusive [inhibitor, single point].

Q: Which Potency does the source give for `Cc1ccc(OCCSc2nnc(-c3cccs3)n2C)cc1` here?
A: Its Potency is inconclusive [inhibitor, partial curve, poor fit].

Q: For `CCN(CC)CCCN=Cc1c(O)n(-c2ccccc2C)c(=O)c2ccccc12`, which Potency is on record?
A: The Potency was inconclusive [inhibitor, partial curve, poor fit].

Q: Which Potency does the source give for `O=C(Nc1nc2ccccc2n1CCOc1ccccc1)c1ccco1` here?
A: The Potency was active: 2.94 µM.

Q: With `CC(Sc1nc2c(c(=O)[nH]1)CCCC2)C(=O)Nc1ccccc1C#N` (stereo not drawn) as the compound, how does the Potency read?
A: The Potency was “inactive”.

Q: Which Potency does the source give for `O=C(Nc1ccc(NC(=O)C2CC2)cn1)c1ccccc1Cl` here?
A: Its Potency is “inactive”.

Q: Which Potency does the source give for `Cc1cccc(N2CCN(CC(=O)NCc3ccccc3)CC2)c1C` here?
A: The Potency was “inactive”.

Q: With `C=C1CCC[C@]2(C)C[C@H]3OC(=O)C(CN[C@@H](C)c4ccccc4)[C@H]3CC12` (stereo partly drawn) as the compound, how does the Potency read?
A: Its Potency is inconclusive [inhibitor, single point].

Q: Which Potency does the source give for `CCOC(=O)C1(CCOc2ccccc2)CCN(C(=O)c2cncs2)CC1` here?
A: The Potency was inconclusive [inhibitor, partial curve, poor fit].

Q: Which Potency does the source give for `CC(Sc1nc2sccc2c(=O)n1-c1ccccc1)C(N)=O` (stereo not drawn) here?
A: The Potency was inconclusive [inhibitor, partial curve, poor fit].

Q: For `C=CCNC(=S)N/N=C(\C)c1ccc(OC)cc1`, which Potency is on record?
A: Its Potency is inconclusive [inhibitor, partial curve].

Q: Which Potency does the source give for `COc1ccc(C)cc1NC(=O)CCNS(=O)(=O)c1cccc(C(F)(F)F)c1` here?
A: Its Potency is “inactive”.

Q: Which Potency does the source give for `Cc1cc(NC(=O)C(C)SCC(=O)N(C)CC(=O)Nc2ccccc2C(F)(F)F)no1` (stereo not drawn) here?
A: Its Potency is “inactive”.

Q: Which Potency does the source give for `Cc1nnc(-c2ccc(Oc3ccc(C)c(C)c3)c([N+](=O)[O-])c2)o1` here?
A: Its Potency is inconclusive [inhibitor, single point].

Q: For `COc1ccc(OC)c(C=Nc2ccccc2-c2nc3ccccc3[nH]2)c1`, which Potency is on record?
A: Its Potency is inconclusive [inhibitor, single point].

Q: With `O=C(Nc1nnc(-c2cccs2)s1)c1cccc(F)c1` as the compound, how does the Potency read?
A: Its Potency is “inactive”.

Q: Which Potency does the source give for `O=C(CSc1nc2ccsc2c(=O)n1Cc1ccc(C(=O)O)cc1)NCc1ccco1` here?
A: Its Potency is “inactive”.

Q: For `CN(CC(=O)Nc1cccc(F)c1)C(=O)c1ccc(COc2ccccc2)o1`, which Potency is on record?
A: Its Potency is inconclusive [inhibitor, single point].

Q: Which Potency does the source give for `CCC(OC(=O)C(CC(C)C)NC(=O)c1ccccc1)C(=O)Nc1nnc(C)s1` (stereo not drawn) here?
A: The Potency was inconclusive [inhibitor, partial curve].

Q: With `NS(=O)(=O)c1ccc(N=Nc2c(O)[nH]c(=S)[nH]c2=O)cc1` as the compound, how does the Potency read?
A: The Potency was inconclusive [inhibitor, partial curve, poor fit].

Q: For `CC(C)[C@H](NC(=O)c1ccc(C(C)(C)C)cc1)C(=O)Nc1nnc(C2CC2)s1`, which Potency is on record?
A: The Potency was inconclusive [inhibitor, partial curve].

Q: With `Cn1cccc1C1NC(=O)c2c(sc3c2CCC(C(C)(C)C)C3)N1` (stereo not drawn) as the compound, how does the Potency read?
A: The Potency was inconclusive [inhibitor, single point].

Q: For `Cc1cccc(NC(=S)NC(C)CCc2ccccc2)c1` (stereo not drawn), which Potency is on record?
A: The Potency was inconclusive [inhibitor, single point].

Q: With `Cc1ccc(NC(=O)CSc2nnnn2C)cc1S(=O)(=O)N(C)C` as the compound, how does the Potency read?
A: The Potency was “inactive”.

Q: For `CCCc1cc(=O)oc2cc(C)cc(OC(C)C(=O)NCCCN3CCOCC3)c12` (stereo not drawn), which Potency is on record?
A: The Potency was inconclusive [inhibitor, single point].

Q: For `CN(C)S(=O)(=O)c1cccc(NC(=O)CSc2cccc3cccnc23)c1`, which Potency is on record?
A: The Potency was active: 11.7 µM.

Q: Which Potency does the source give for `COc1cc(Cl)c(C)cc1NC(=O)CCNC(=O)c1ccco1` here?
A: The Potency was “inactive”.

Q: Which Potency does the source give for `CCOC(=O)c1ccc(-n2ccnc2)c(NC(=O)c2ccc(C(C)(C)C)cc2)c1` here?
A: The Potency was active: 13.1 µM.

Q: With `NS(=O)(=O)c1cccc(NC(=O)Cc2ccc(Cl)c(Cl)c2)c1` as the compound, how does the Potency read?
A: The Potency was “inactive”.

Q: For `CCCC1(c2ccccc2)NC(=O)N(CC(=O)N2CC(=O)Nc3ccccc32)C1=O` (stereo not drawn), which Potency is on record?
A: Its Potency is active: 2.94 µM.

Q: Which Potency does the source give for `COc1ccccc1-n1cnnc1SCC(=O)N1CCN(S(=O)(=O)c2ccccc2)CC1` here?
A: The Potency was inconclusive [inhibitor, single point].

Q: With `CC1CCC(C(C)C)C(OC(=O)COC(=O)c2ccccc2N)C1` (stereo not drawn) as the compound, how does the Potency read?
A: Its Potency is inconclusive [inhibitor, single point].

Q: For `CN(C)c1ccc(-[n+]2c(-c3ccccc3)cc(-c3ccccc3)cc2-c2ccccc2)cc1`, which Potency is on record?
A: The Potency was inconclusive [inhibitor, full curve].

Q: Which Potency does the source give for `CCOc1ccccc1NC(=O)CCS(=O)(=O)c1ccc(Br)cc1` here?
A: Its Potency is “inactive”.

Q: For `CCN(CC)C(=O)Oc1cc(COC)nc(-c2ccccc2)n1`, which Potency is on record?
A: Its Potency is active: 10.4 µM.

Q: With `O=C(CN1C(=O)NC(Cc2c[nH]c3ccccc23)C1=O)NCCc1ccccc1` (stereo not drawn) as the compound, how does the Potency read?
A: The Potency was “inactive”.

Q: For `CCCCCCCC[n+]1cccc(C(=O)N(CC)CC)c1`, which Potency is on record?
A: Its Potency is inconclusive [inhibitor, single point].

Q: For `COc1ccc(CNc2nc(NCc3ccc(OC)c(OC)c3)n(C(=O)c3cccs3)n2)cc1OC`, which Potency is on record?
A: Its Potency is inconclusive [inhibitor, single point].

Q: For `CCOC(=O)C1(CCOc2ccccc2)CCN(Cc2ccc(-n3cccn3)cc2)CC1`, which Potency is on record?
A: The Potency was active: 14.7 µM.

Q: With `O=C(CCN1CCOCC1)NCC(=O)Nc1ccc(Br)cc1C(=O)c1ccccc1` as the compound, how does the Potency read?
A: Its Potency is “inactive”.

Q: For `COc1ccc(C(=O)C2CCCN(Cc3ccc4nonc4c3)C2)c(OC)c1` (stereo not drawn), which Potency is on record?
A: Its Potency is “inactive”.

Q: With `COc1ccccc1N1CCN(C(=O)c2cccc(Oc3ccccc3)c2)CC1` as the compound, how does the Potency read?
A: The Potency was inconclusive [inhibitor, single point].

Q: Which Potency does the source give for `O=C(CC1C(=O)CCCC1=O)c1ccccc1` here?
A: Its Potency is “inactive”.

Q: Which Potency does the source give for `CN(C)C(=O)Oc1ccc(OCc2nc3ccccc3[nH]2)cc1` here?
A: Its Potency is “inactive”.

Q: Which Potency does the source give for `CCC1(c2ccccc2)NC(=O)N(CC(=O)Nc2cc(Cl)ccc2N2CCN(C)CC2)C1=O` (stereo not drawn) here?
A: The Potency was active: 11.7 µM.
